The whole screen tested about 350,000 compounds, of which about 9,900 (2.8%) were called active. The shares of active, inactive and inconclusive entries below differ from those in the screen. The call rests on the fitted dose curve; in most records, active means well fitted activation curve with a large enough effect; inconclusive means small, poorly fitted or top-dose-only effect; inactive means no such curve, though single readings can be large or run the other way. Potencies of inconclusive entries are left out as doubtful fits.
Test: A quantitative high throughput screen for small molecules that induce DNA re-replication in MCF 10a normal breast cells. Further: nearly all actives have a fitted effect of over 50% in size.
Conditions: MCF 10A DNA re-replication, Hoechst nuclear intensity, 48 h; series mostly up to 46.1 µM
With `Cc1cccc(N2CCN(C(=O)c3ccc4ccccc4c3)CC2C)c1` (stereo not given) the Potency was inconclusive [activator, single point].
With `O=C(Nc1cc(C(=O)N2CCN(c3ccccc3O)CC2)ccc1Cl)c1cccs1` the Potency was inconclusive [activator, partial curve, poor fit].
In the case of `COc1ccccc1NC(=O)CN1CCN(C2c3ccccc3-c3ccccc32)CC1`, the Potency is reported as active: 5.8 µM.
With `Cc1cccc(N2CCN(Cc3ccoc3)CC2)c1C` the Potency was active: 20.6 µM.
With `O=C(N[C@@H](Cc1ccccc1)C(=O)CCl)OCc1ccccc1` the Potency was inconclusive [activator, full curve, poor fit].
With `Cc1ccc(-c2cc(-c3ccc(F)cc3)nc(N)c2C#N)o1` the Potency was active: 3.66 µM.
In the case of `Cc1ccc(S(=O)(=O)N2CCN(C(=O)COC(=O)CCOc3ccc(C(C)(C)C)cc3)CC2)cc1`, the Potency is reported as “inactive”.
In the case of `C=CCN1C=C(C(=O)c2ccccc2)C(=O)CC1`, the Potency is reported as “inactive”.
With `Oc1ccc(-c2onc3ccc(Cl)cc23)cc1` the Potency was inconclusive [activator, partial curve, poor fit].
In the case of `COCCCNC(=O)/C(C#N)=C/c1c(N2CCN(c3ccccc3)CC2)nc2ccccn2c1=O`, the Potency is reported as active: 20.6 µM.
With `Cc1nnnn1/C(=C\c1ccccc1)C(=O)OCC(=O)Nc1ccc(Cl)cc1F` the Potency was inconclusive [activator, single point].
In the case of `COc1cc([N+](=O)[O-])cc(/C=N/NC(=O)c2cc(C)nc3ccccc23)c1O`, the Potency is reported as inconclusive [activator, partial curve].
In the case of `CCCC1OC23CCCCC2C(C#N)(C#N)C1(C#N)C(=N)O3` (stereo not given), the Potency is reported as inconclusive [activator, partial curve, poor fit].
For `CC(C)c1ccc(/C=C/C(=O)Nc2ccc(CN3CCOCC3)cc2)cc1`, the Potency was active: 13 µM.
For `O=C1CC(SC2=NCCS2)C(=O)N1c1ccc(Br)cc1` (stereo not given), the Potency was “inactive”.
In the case of `CCOC(=O)c1cnc2[nH]c3ccccc3n2c1=O`, the Potency is reported as inconclusive [activator, single point].
With `O=S(=O)(c1ccc(Cl)cc1)N1CCN(Cc2ccc(O)c3ncccc23)CC1` the Potency was inconclusive [activator, single point].
For `O=[N+]([O-])c1ccc(N2CCCCC2)nc1N1CCCCC1`, the Potency was inconclusive [activator, single point].
In the case of `Cc1cc(C)cc(NC(=O)CSc2nc(=O)n(CCCN3CCOCC3)c3c2CCCC3)c1`, the Potency is reported as inconclusive [activator, partial curve, poor fit].
In the case of `O=S(=O)(Nc1cccc(CO)c1)c1cccs1`, the Potency is reported as “inactive”.
In the case of `Cc1ccc(S(=O)(=O)CCC(=O)N(C)C2CCCCC2)cc1`, the Potency is reported as “inactive”.
For `Cc1cc(=O)oc(C)c1C(=O)OC(C(=O)c1ccccc1)c1ccccc1` (stereo not given), the Potency was inconclusive [activator, partial curve, poor fit].
In the case of `COC(=O)c1c(-c2ccsc2)oc2ccc(-c3cc(OC)c(OC)c(OC)c3)cc12`, the Potency is reported as inconclusive [activator, single point].
With `CCCCc1ccc(NC(=S)NCCc2ccc(F)cc2)cc1` the Potency was inconclusive [activator, single point].
For `COc1ccc(OC)c(-c2csc(N(C)C(=O)c3ccco3)n2)c1`, the Potency was inconclusive [activator, single point].
In the case of `COc1ccc2nc(SCC(=O)NC3CCCC3)c(C)cc2c1`, the Potency is reported as active: 8.2 µM.
In the case of `COCCN1CCCC(CNCc2cn(C)nc2-c2ccc(Oc3ccccc3)cc2)C1` (stereo not given), the Potency is reported as inconclusive [activator, single point].
With `COC(=O)C1(c2ccccc2)NC(c2cccs2)C2C(=O)N(C)C(=O)C21` (stereo not given) the Potency was “inactive”.
In the case of `Cc1cccc(-n2cc[nH]c2=S)c1`, the Potency is reported as “inactive”.
With `CN(C)c1ccc(C(=O)N2CCN(c3cc(C(F)(F)F)nc4ccccc34)CC2)cc1` the Potency was “inactive”.
With `CCOC(=O)c1cnc2c(C)cc(Cl)cc2c1NCCCN1CCOCC1` the Potency was active: 23.1 µM.
With `Cc1ccc2nc3c(cc(C(=O)NCc4ccco4)c(=N)n3Cc3ccco3)c(=O)n2c1` the Potency was inconclusive [activator, partial curve, poor fit].
For `CCOC(=O)C(CC)n1cnc2c(nnn2-c2ccccc2)c1=O` (stereo not given), the Potency was “inactive”.
In the case of `CCc1ccc(NC(=O)C(=O)NCc2ccccn2)cc1`, the Potency is reported as inconclusive [activator, full curve, poor fit].
In the case of `Cc1ccc(C(=O)NCc2cccnc2)cc1S(=O)(=O)N1CCCCCC1`, the Potency is reported as “inactive”.
With `Cc1occc1C(=O)N/N=C/c1c[nH]c2ccccc12` the Potency was “inactive”.
For `CCCCCCCCNC(=O)/C(C#N)=C/c1ccccc1[N+](=O)[O-]`, the Potency was inconclusive [activator, single point].
With `COc1ccccc1NC(NC(=O)c1ccco1)C(=O)c1ccccc1` (stereo not given) the Potency was inconclusive [activator, single point].
In the case of `CCn1c(=O)c(C(=O)NCCc2ccc(OC)c(OC)c2)c(O)c2ccccc21`, the Potency is reported as inconclusive [activator, partial curve, poor fit].
For `COc1ccccc1Nc1nc(N)nc(CN2CCC(C)CC2)n1`, the Potency was “inactive”.
With `C#CCNC(=O)C1=C[C@H](c2csc3ccccc23)C[C@H](OCc2ccc(CO)cc2)O1` the Potency was active: 2.06 µM.
With `Cc1ccc(C)c(S(=O)(=O)Nc2cc(SCC(=O)O)c(O)c3ccccc23)c1` the Potency was inconclusive [activator, single point].
For `O=[N+]([O-])c1ccc(O)c(C=Nc2cccc3ncccc23)c1`, the Potency was inconclusive [activator, single point].
For `CC(/C=C/c1ccc(N(C)C)cc1)=N\N=C1\NC(=O)CC(C(=O)Nc2ccccc2)S1` (stereo not given), the Potency was active: 11.6 µM.
In the case of `Cc1cc(C)c(S(=O)(=O)N2CCCC(C(=O)N3CCOCC3)C2)c(C)c1` (stereo not given), the Potency is reported as “inactive”.
For `CCn1c(=O)cc(OCC(=O)Nc2cc(C)ccn2)c2ccccc21`, the Potency was inconclusive [activator, partial curve, poor fit].
For `O=C(CNC(=O)c1cccc(F)c1)N/N=C/c1cc(Br)ccc1OCc1ccccc1`, the Potency was inconclusive [activator, single point].
For `O=C(c1ccc(S(=O)(=O)c2cccc(Cl)c2)c([N+](=O)[O-])c1)N1CCN(c2ccccn2)CC1`, the Potency was inconclusive [activator, single point].
For `COC(=O)c1cn(C(=O)c2cc(OC)c(OC)c(OC)c2)c2ccccc12`, the Potency was inconclusive [activator, partial curve, poor fit].
With `C(=N\N=C\c1ccncc1)/c1ccncc1` the Potency was “inactive”.
In the case of `CCOc1cc(-c2nccc3cc(OC)c(OC)cc23)cc(OCC)c1OCC`, the Potency is reported as “inactive”.
In the case of `COc1ccc(C(=O)/C=C/C(=O)N(Cc2ccccc2OC)C(C(=O)NC2CCCCC2)c2ccncc2)c(O)c1` (stereo not given), the Potency is reported as inconclusive [activator, single point].
With `Cc1ccc2c(Br)cc(Br)c(O)c2n1` the Potency was active: 18.8 µM.
In the case of `N#CC1=C(N)Oc2cc3ccccc3cc2C1c1cccnc1` (stereo not given), the Potency is reported as active: 7.08 µM.
In the case of `C/C(=N/NC(=O)CN1CCN(Cc2ccccc2Cl)CC1)c1ccncc1`, the Potency is reported as “inactive”.
In the case of `CC(C)CC(C(=O)OCC(=O)c1c(N)n(C)c(=O)n(C)c1=O)N1C(=O)c2ccccc2C1=O` (stereo not given), the Potency is reported as inconclusive [activator, single point].
For `CC(=O)/C=C\c1cn(-c2ncc(C(F)(F)F)cc2Cl)c2ccccc12`, the Potency was inconclusive [activator, single point].
With `Cc1cccc(-n2c(=O)cc(N3CCN(c4ccc(F)cc4)CC3)[nH]c2=O)c1` the Potency was inconclusive [activator, partial curve, poor fit].
In the case of `Cn1c(NCc2ccco2)nc2c1c(=O)n(Cc1ccc(Cl)cc1Cl)c(=O)n2C`, the Potency is reported as inconclusive [activator, single point].
With `Cc1ccc(C(=O)NCCc2c[nH]c3ccccc23)s1` the Potency was inconclusive [activator, partial curve, poor fit].
With `Cc1c(C(=O)NCc2ccccc2CN2CCCC2)oc2c(F)cccc12` the Potency was inconclusive [activator, partial curve].
For `Cc1ccc(Cn2c(C(CO)Nc3nc(-c4ccc(F)cc4)cs3)nc3ccccc32)cc1` (stereo not given), the Potency was inconclusive [activator, single point].
In the case of `CCOC(=O)C1=C(c2ccccc2)NC(=S)NC1c1ccc(Cl)cc1` (stereo not given), the Potency is reported as inconclusive [activator, single point].
For `CC(C)c1nc(SCC(=O)c2ccc(F)cc2)c2ccccc2n1`, the Potency was active: 3.26 µM.
In the case of `CCCn1c(CC)nc([N+](=O)[O-])c1S(=O)(=O)c1ccccc1`, the Potency is reported as active: 3.66 µM.
With `CC1CC(C)CN(S(=O)(=O)c2ccc3c(c2)CC(C)N3C(=O)C2CC2)C1` (stereo not given) the Potency was inconclusive [activator, partial curve, poor fit].
For `CCOC(=O)C1=C(C)N(C)C(=O)NC1c1c(C)nn(-c2ccc(C)cc2)c1Cl` (stereo not given), the Potency was inconclusive [activator, single point].
With `C[C@]12CCC3c4ccc(O)cc4CCC3C1CC/C2=N\N` (stereo not given in full) the Potency was inconclusive [activator, partial curve].
In the case of `O=C(Nc1ccc(S(=O)(=O)Nc2nccs2)cc1)/C(=C/c1ccccc1Cl)NC(=O)c1ccccc1`, the Potency is reported as inconclusive [activator, partial curve, poor fit].
With `C=CCn1c(SCC(=O)Nc2c(C)n(C)n(-c3ccccc3)c2=O)nc2sc(C)c(-c3ccccc3)c2c1=O` the Potency was “inactive”.

— PubChem BioAssay AID624296 (National Center for Advancing Translational Sciences (NCATS), 2012)
Potency means the concentration at half of the fitted maximal effect; tags describe the fitted curve by direction and shape.
